# Measured values: ChEMBL document CHEMBL4888484, “Replenishing the malaria drug discovery pipeline: Screening and hit evaluation of the MMV Hit Generation Library 1 (HGL1) against asexual blood stage Plasmodium falciparum ,using a nano luciferase reporter read-out” (2022)
# Screen size: about 150,000 compounds; about 540 (0.36%) showed an effect of 50% or more. The list shows a part of the results.
# Test system: Plasmodium falciparum
# Test: Primary screen in NF54 nanoGlo assay, in single point, at 2uM, 72h; a lower Z score goes with more inhibition
# Assay type: functional, Erythrocyte
# Settings: timepoint 72 hour
Compound,% Inhibition [%],Z score
COc1ccc([C@@H]2c3[nH]c4ccccc4c3CCN2Cc2ccccc2F)cc1,-1,0.15
N#Cc1ncn(CCCC(=O)N2CCCCC2)n1,-1,0.1
O=C(Nc1onc2c1CCC2)c1cccc2ccccc12,20,-2.27
COCCC(=O)NCCn1cc(-c2nc(-c3ccsc3)no2)nn1,-21,3.91
O=C(NCC1CCN(Cc2nc3ncccn3n2)CC1)c1cc(C2CC2)no1,-21,2.64
Fc1ccc(-c2nc([C@H]3CCOC3)no2)cc1COCC1CC1,2,-0.2
CCc1nc(C)c(C(=O)N(Cc2ccc(C)cc2)[C@@H](C)CC)o1,-10,1.17
CCNc1ccnc(N[C@H]2CCCC[C@@H]2O)n1,16,-2.01
CCOC(=O)c1nc([C@H](CC(C)C)NCc2ccc(F)c(C)c2)n[nH]1,-3,0.55
CC(C)c1ccc(-c2nc(N3CCCCC3)nc(O)c2C#N)cc1,-6,0.85
Cc1ccc(CNc2cnn(CC(=O)NCCN(C)C)c2)c(-c2ccnn2C)c1,-9,1.21
COc1ccc(C)cc1NC(=O)C(=O)NCCC(c1ccccc1)c1ccccc1,12,-2.23
CCCN(C(=O)c1ccc(F)cc1F)c1cccc(NC(=O)c2ccc(F)cc2F)c1,-12,1.25
O=C(Nc1nc(-c2ccccc2)nc2c1C(=O)CCC2)c1ccccc1,-18,2.3
COc1cccc([C@@H](C)NC(=O)c2cc(CN3CCC(O)CC3)on2)c1,-2,0.45
CC(C)[C@H]1CN(Cc2ccccc2Cn2cccn2)C[C@@H]1NC(=O)N(C)C,-11,1.13
CC(C)(C)c1cc(CS(=O)(=O)Nc2ccccc2OC(F)F)no1,4,-0.49
COc1ccc(NC(=O)c2cnc(N(C)C)nc2)cc1Cl,-4,0.65
Cc1cc(-c2noc(C3C[C@@H]4CC(=O)[C@H]3C4)n2)cc(C)c1Br (stereo not given in full),-8,1.44
CN(CCN1CCCCC1=O)C(=O)c1ccc2c(c1)c1ccccc1n2C,3,-0.52
Cn1ccnc1C(NC(=O)N1CCCC(C)(C)C1)c1nccn1C,-34,3.95
CN1CCC(C(=O)NC2CCCc3ccccc32)CC1=O (stereo not given),-14,1.2

Compound,% Inhibition [%],Z score
COCc1nsc(NC(=O)c2nnn(CC3CCCC3)c2C)n1,-13,1.64
COc1ccc(CCC2CCCCN2C(=O)C(C)N)cc1OC (stereo not given),-6,0.7
COc1ccc(F)c(NCc2cnc3cnccn23)c1,-4,0.45
O=C(NC1CC1c1ccc(OCc2ccccc2)cc1)C1CCOC1 (stereo not given),-3,0.36
COc1ccc(C(=O)N2c3ccccc3OC(=O)[C@@H]2CC(=O)Nc2ccccc2)cc1,9,-1.15
CC1(C(=O)NCCS(N)(=O)=O)CC2CCC1C2 (stereo not given),0,-0.07
COc1cc(NC(=O)N[C@H]2CCN(CC(F)F)C2)ccn1,-8,1.61
O=C(CCCn1cncn1)NCc1ccc2cc[nH]c2c1,-7,1.07
CCCOc1ccc(Cl)cc1CNC(=O)N1CCO[C@H](C(=O)N(C)C)C1,-11,1.03
CCC1(CC)CN(c2ccnc(C(=O)NCCOC)c2)CCO1,-2,0.19
CCn1ncc(CNC(=O)C2CCCC2)c1C,-6,0.73
CCCCNC(=O)N1CCC(N(Cc2ccc(F)cc2)C(=O)CN(CCC)S(=O)(=O)CCC)CC1,-2,0.28
CN(C(=O)c1csc(NC2CCCCC2)n1)C1CC(O)C1 (stereo not given),-7,1.04
O=C(N[C@H]1C[C@H]2OCC[C@@H]12)c1ccc2cccc(Cl)c2n1,-18,2.85
Cc1c(CC(=O)N2CCCO2)c2c(n1Cc1ccccc1F)CCCC2=O,-14,2.14
O=C(N[C@@H](CCO)C1CCCC1)c1cncc(N2CCCC2=O)c1,-10,0.96
O=C(Cn1nc(C2CC2)ccc1=O)Nc1cc[nH]n1,6,-0.81
CS(=O)(=O)N(CCN1CCOCC1)C1CN(C(=O)COc2ccc(F)cc2)C1,3,-0.36
C[C@@H](C1CC1)N(C)C(=O)COCc1ccccc1,-1,0.07
CC(C)c1cc(CNC(=O)c2cc(F)c(F)c(O)c2F)on1,-13,1.11
CCN(CC)c1nc2cc(C(=O)NCc3ccc(F)cc3F)ccc2c(=O)n1Cc1ccccc1,-7,1.38
C=CCCC(=O)NC[C@H]1CCCN1c1ncccn1,-2,0.23

Compound,% Inhibition [%],Z score
Cc1nnc2n1C[C@@H](Nc1ccc(C(=O)Nc3ccccc3)nn1)CC2,-1,0.22
O=C(NCCn1ccnc1)NCC1(c2ccccc2)CC1,7,-0.69
Cc1ccc(-c2noc(-c3cccc(S(=O)(=O)N4CCN(c5cccc(C)c5)[C@@H](C)C4)c3)n2)cc1,-1,0.12
Cc1noc(C2CCN(C(=O)c3ccccc3-n3cnnn3)CC2)n1,-11,2.37
CC1=C(C(=O)N(C)Cc2nccs2)OCCO1,11,-1.48
C[C@H]1CCN(CCC(=O)N(CC#N)CC#N)c2ccccc21,-3,0.44
CCc1nnsc1C(=O)N1CCCN(C(C)=O)CC1,-16,1.35
CN1C(=O)[C@@H]2CC[C@H]1CN(Cc1cnc(NCc3ccccc3)nc1)C2,-18,1.78
O=C(Cc1cnc2ccccc2c1)NCCC(=O)Nc1cccnc1,5,-0.47
CC1=C(c2ccccc2)[C@H]1C(=O)NCc1cc(C2CC2)on1,-8,1.23
Cc1nn(-c2ccc(F)cc2)c2[nH]nc(NC(=O)COCC3CC3)c12,-8,1.26
Cc1nnsc1C(=O)N1C2CCC1CC(N1C(=O)CCC1=O)C2 (stereo not given),-11,1.2
Cc1ccc(C(=O)NCC[C@H](C)N2CCN(C)CC2)n1C(F)F,-2,0.47
CC1C(=O)C(C(=O)NCc2ccncc2)C(=O)N1Cc1ccccc1 (stereo not given),-1,0.21
Cc1ccc(C)c(NCc2cc(=O)n3cc(C)ccc3n2)c1,27,-3.01
Cn1c(=O)c(CN2CCCC2)cc2ccc(Cl)cc21,-1,0.16
C[C@H]1CCCCN1CC(=O)NCCC#N,-13,2.63
CN1C(=O)C2(CCN(Cc3ccncc3)CC2)C[C@H]1C(=O)NC1CCCC1,-6,0.74
O=C(O)C1=NN(c2ccc(F)cc2)C(=O)CC1=O,31,-3.48
O=C(c1cn(CCN2CCOCC2)nn1)N(CC1CCC1)C[C@H]1CCCO1,-5,0.92
C[C@@H](CNc1ccc(F)cc1C#N)Cn1ccnc1,-8,1.05
COc1ccc(CN2C(=O)[C@@H]3C[C@@H](O)CN3C3(CN(Cc4c[nH]cn4)C3)C2=O)cc1,32,-3.62

Compound,% Inhibition [%],Z score
CCOc1ccc(CNC(=O)CCC(=O)N2C[C@@H]3CCCN3c3ccccc32)cc1OC,-14,1.55
CCC[C@](C)(NC(=O)c1cc(OC)ccc1O)C(=O)OC,-6,0.53
CNC(=O)Cn1cc(NC[C@H]2CC2(Cl)Cl)cn1,-1,0.18
CCNC(=O)c1ccc(NCc2cncc(OC)c2C)cc1,6,-0.95
C[C@@H]1CN(C(=O)c2cccc(-c3ccc4cnc(N)cc4c3)c2)C[C@H](C)O1,-8,0.89
CCNc1ncc(C(=O)N2CCN(C/C=C/c3ccccc3)CC2)cn1,-9,1.77
CC(NC1CCN(C(=O)COc2ccccc2)C1)c1cccc(C#N)c1 (stereo not given),3,-0.41
CC(C)n1ccnc1[C@H]1CCCN(C(=O)c2cnc3c(c2)CCCC3)C1,3,-0.26
OC[C@H](Cc1c[nH]c2ccccc12)Nc1cc(-n2ccnc2)ncn1,-6,0.76
Cc1ccc(C(=O)Nc2ncn(Cc3c(F)cccc3Cl)n2)cc1,-15,1.74
CCc1nc(N)sc1C(=O)N1C[C@@H]2CC[C@H]1CN(Cc1cccnc1)C2,-2,0.33
CO[C@H]1COCC[C@@H]1NC(=O)c1cccc(N2CCS(=O)(=O)CC2)c1,-3,0.55
O=C([C@@H](O)Cc1ccccc1)N1CCS(=O)(=O)c2ccccc2C1,5,-0.59
COc1cnc(C(=O)NC[C@H](NC(=O)OC(C)(C)C)C2CC2)c(F)c1,-8,1.41
Cc1ccc2oc(-c3nnc(C(=O)NC4CCCCCCC4)o3)c(C)c2c1,-3,0.57
CC(CN1CCOCC1)NC(=O)NC(C(=O)N(C)C)c1ccccc1 (stereo not given),-2,0.35
CC(C)(C)OC(=O)N1CCC[C@H](N(CC(=O)NC2CC2)Cc2cncnc2)CC1,7,-1.28
CCOC(=O)CN(CCOC)CC(=O)Nc1ccc(Cl)cc1F,-9,1.09
O=C(Cn1cnc2c(c1=O)CCCC2)Nc1ccc(Br)cc1F,-7,0.86
